Data reported in PubChem BioAssay AID686978 (National Center for Advancing Translational Sciences (NCATS), 2013).
Out of some 420,000 compounds screened, about 64,000 (15%) were called active. This list was built around the results that the source calls inconclusive (neither active nor inactive); the mix of calls is not that of the screen. Calls follow the shape of the dose curve; as a rule, active = well fitted inhibition curve with a large enough effect; inconclusive = small, poorly fitted or top-dose-only effect; inactive = flat fitted curve, though single readings scatter. Potencies of inconclusive entries are left out as doubtful fits.

Assay: qHTS for Inhibitors of human tyrosyl-DNA phosphodiesterase 1 (TDP1): qHTS in cells in absence of CPT; also: nearly all actives have a fitted effect of over 55% in size
Settings: DT40 Tdp1-/- hTDP1 cells, no CPT, ATP luminescence, 48 h; activity change, negative = growth inhibition: at 46.2 µM (top of the series) unless noted
Outline: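 A cellular qHTS used chicken DT40 cells lacking endogenous Tdp1 but carrying stably transfected human TDP1. Compounds were applied without camptothecin, and cell growth kinetics were judged by ATP-dependent luminescence after ≥48 hr.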
% is scaled to controls: 0 for no effect and ±100 for the full control effect; potency is read from the fitted curve at half-maximal effect; tags tell the direction and shape of the fitted curve.

Structure (SMILES)	activity change, negative = growth inhibition	Potency
Cc1cc([N+](=O)[O-])c(=O)[nH]c1C	inactive: -2.5%	
CC#CC(=O)N1CCC(CO)(CCc2ccccc2)CC1	inactive: 0.769%	
Cc1ccc(C2OC(=O)C=C2c2ccccc2)cc1 (configuration not stated)		inconclusive [inhibitor, partial curve]
COc1cc(/C=C/C(=O)OCC(=O)Nc2ccc(C)cc2[N+](=O)[O-])ccc1O		inconclusive [inhibitor, full curve, poor fit]
O=C(CN(C(=O)c1csnn1)c1cccc(C(F)(F)F)c1)NC1CCCC1	inactive: -10.6%	
COc1ccc(CCNC(=O)CCCc2ccccc2)cc1	inactive: 6.71%	
Nc1nc2ccc(Cl)cc2cc1C(=O)NCCc1ccc(Cl)cc1Cl		inconclusive [inhibitor, partial curve]
CN(CC(=O)Nc1cccc(F)c1)C(=O)c1cccc(-n2cccc2)c1		inconclusive [inhibitor, single point]
COC1=CC(=O)c2ccccc2C1=O		active: 4.11 µM
C=CCN(CC=C)C(=O)C1CCN(Cc2ccc(OCc3ccccc3)cc2)CC1		inconclusive [inhibitor, single point]
c1cn2c(-c3ccoc3)cncc2n1	inactive: -17.2%	
CC1(C(=O)Nc2cccnc2)Cc2c(-c3ccc4c(c3)OCO4)ccnc2O1 (configuration not stated)		inconclusive [inhibitor, single point]
CC(=O)[C@@]1(O)C(C)CC2C3C=C(C)C4=Cc5c(cnn5-c5ccccc5)C[C@]4(C)C3C(O)C[C@@]21C (some centres not stated)		active: 5.17 µM
Cc1ccc(Nc2nc(N3CCOCC3)nc(N3CCOCC3)n2)cc1C		active: 13 µM
CCOc1ccc2nc(NC(=O)c3nc(SCc4ccccc4F)ncc3Cl)sc2c1		inconclusive [inhibitor, full curve]
Cc1[nH]c2ccc(C(=O)OC(C)C(=O)NC3CCCCC3C)cc2c1C (configuration not stated)		inconclusive [inhibitor, single point]
COc1ccc(C2Nc3ccccc3NC3=C2C(=O)CC(C)(C)C3)cc1 (configuration not stated)	inactive: 20%	
COc1ccc(/C=C2/SC(=O)NC2=O)cc1	inactive: -25.8%	
COc1ccccc1N1CCN(c2ccc3c(c2)S(=O)(=O)c2cccc(C(=O)NCc4cccc(F)c4)c2C3=O)CC1		active: 1.64 µM
COc1ccc(-c2nc3cc(NC(=S)NC(=O)Cc4ccccc4)ccc3o2)cc1		inconclusive [inhibitor, partial curve]
CC(NC(=O)COC(=O)c1ccc(N(C)C)cc1)c1ccccc1 (configuration not stated)		inconclusive [inhibitor, single point]
Cc1cccc(C)c1N1CCN(C(c2cc3ccccc3o2)c2nnnn2C(C)(C)C)CC1 (configuration not stated)		inconclusive [inhibitor, single point]
Cc1cc(C)cc(-n2c(SCC(=O)Nc3ccccc3)nc3c(oc4ccccc43)c2=O)c1		inconclusive [inhibitor, partial curve]
CC(CCc1ccccc1)NCc1ccc(Cl)cc1Cl (configuration not stated)		inconclusive [inhibitor, single point]

Structure (SMILES)	activity change, negative = growth inhibition	Potency
O=c1cc(-c2ccco2)oc2c1ccc1ccccc12	inactive: -21.3%	
Cc1cccc(CSc2nnc(-c3cccs3)n2Cc2ccco2)c1		inconclusive [inhibitor, single point]
O=C(CN1CCN(c2ccccc2)CC1)Nc1ccncc1		active: 18.4 µM
CCn1c(SCC(=O)Nc2ccc(OC)c(S(=O)(=O)N3CCCCC3)c2)nnc1C1CC1	inactive: 10.2%	
N#Cc1ccccc1S(=O)(=O)N1CCN(CC(=O)NCC2(N3CCOCC3)CCCCC2)CC1	inconclusive: -32% [inhibitor]	
COc1ccc(-c2noc(CSc3ccccc3)n2)cc1OC		inconclusive [inhibitor, partial curve, poor fit]
COc1cc(CCC(=O)Oc2ccc(C(C)=O)cc2)cc(OC)c1OC		inconclusive [inhibitor, single point]
COC(=O)c1ccc(COc2cccn3c(N(C)C(=O)CCC4CCCC4)c(C)nc23)cc1		active: 20.6 µM
Cc1ccc(OCC(=O)NNC(=O)c2cc(S(=O)(=O)N(C)C)ccc2N2CCCC2)cc1	inactive: -11.6%	
O=C(N1CCN(Cc2ccc3c(c2)OCO3)CC1)C12CC3CC(CC(C3)C1)C2		inconclusive [inhibitor, single point]
N#Cc1c(C(F)(F)F)cc(-c2ccccc2)nc1SCCN1CCOCC1		inconclusive [inhibitor, single point]
CC(=O)c1ccc(N2CCN(C(=O)Cc3n[nH]c(=O)c4ccccc34)CC2)cc1		inconclusive [inhibitor, partial curve]
O=C1CSC(c2ccccc2[N+](=O)[O-])N1CCc1ccccc1 (configuration not stated)	inactive: -9.17%	
COc1cc(/C=N\NC(=O)c2ccc(=O)[nH]n2)cc(OC)c1OC		inconclusive [inhibitor, single point]
CN(CCOc1ccccc1)C(=O)C1CCC(=O)N(CCc2ccc(Cl)cc2)C1 (configuration not stated)		inconclusive [inhibitor, single point]
O=[N+]([O-])c1ccc(Sc2ccccn2)nc1	inactive: 12%	
CCOc1cc(C)ccc1OCc1nnc(SCC(=O)c2cccc([N+](=O)[O-])c2)n1CC		inconclusive [inhibitor, single point]
CCOc1cc(/C=N\Nc2nc(Nc3ccccc3)nc(N3CCOCC3)n2)ccc1OC(=O)c1ccco1		active: 8.2 µM
COc1ccc2c(CNCc3cccs3)c(C(=O)O)n(Cc3ccc(F)cc3)c2c1		active: 9.2 µM
CCN(Cc1nc2ccccc2c(=O)[nH]1)C(=O)c1ccc(C)c(NC(=O)c2ccco2)c1		inconclusive [inhibitor, single point]
CC[C@@]12C(=O)N(c3cccc(Br)c3)C(=O)N1[C@H](c1cccc(C)c1)[C@@H]1C(=O)N(Cc3ccccc3)C(=O)[C@@H]12		inconclusive [inhibitor, single point]
CCN(C(=O)CSc1nc(C)nc2sc3c(c12)CCC3)C1CCS(=O)(=O)C1 (configuration not stated)		active: 20.6 µM
Cc1ccc(-c2cc(C(=O)Nc3nccs3)c3ccccc3n2)c(C)c1		active: 13 µM
OCCC1CN(Cc2cccc(OC3CCCC3)c2)CCN1Cc1ccsc1 (configuration not stated)		inconclusive [inhibitor, single point]

Structure (SMILES)	activity change, negative = growth inhibition	Potency
NC(=O)CSc1ncnc2c1nnn2Cc1ccc(F)cc1		inconclusive [inhibitor, single point]
O=C(NC1CCCCC1)C(c1cccs1)N(C(=O)c1ccco1)c1ccc2c(c1)OCCO2 (configuration not stated)		inconclusive [inhibitor, partial curve]
COc1ccc(CCN=C(N)NS(=O)(=O)c2ccc(C)c(C)c2)cc1	inactive: -25.1%	
Cc1ccc(-n2nc3c(=O)n(C(C)C(=O)NCc4ccc(OC(C)C)cc4)nc(C)c3c2C)cc1 (configuration not stated)		active: 13 µM
Cc1occc1C(=O)O/N=C(\N)c1ccccc1		inconclusive [inhibitor, single point]
Oc1ccc(/C=N/N=C(c2ccccc2)c2ccccc2)c(O)c1O		inconclusive [inhibitor, single point]
CCOC(=O)Cc1c(C)nc2c(-c3ccccc3)c(C)[nH]n2c1=O		inconclusive [inhibitor, single point]
Cc1cc(NC(=O)CCNS(=O)(=O)c2cc(Br)cnc2N)ccc1Br	inactive: -6.06%	
CC1=CC(C)(C)N(C(=O)CNC2CCCC2)c2cc(C)ccc21		active: 25.9 µM
Cc1cccc(NC(=S)NC(=O)c2oc3ccccc3c2C)n1	inactive: -41.1%	
C=CCOC(=O)C1=C[C@@H](c2ccc3c(c2)OCO3)C[C@@H](OCCCCO)O1	inactive: -79.5%	
CCCCCCCCC(=O)NCCOc1ccccc1	inactive: 2.92%	
Cc1ccc(S(=O)(=O)N2[C@@H](c3cccc(Cl)c3)C(C(=O)OC(C)(C)C)=CC[C@H]2c2ccc(C(C)C)cc2)cc1		active: 14.6 µM
CC(=O)N(C(C)=O)c1ccc(Oc2ccc(Oc3ccc(N(C(C)=O)C(C)=O)cc3)cc2)cc1		inconclusive [inhibitor, single point]
CC(NC(=O)c1ccc([N+](=O)[O-])cc1Cl)C1CC2CCC1C2 (configuration not stated)		inconclusive [inhibitor, single point]
COc1cc(OC)cc(-c2nc3nc(C)c(CCC(=O)Nc4cc(C)cc(C)c4)c(C)n3n2)c1		inconclusive [inhibitor, partial curve, poor fit]
COc1ccc(OC)c(-n2c(-c3cccc(S(=O)(=O)N(C)C)c3)n[nH]c2=S)c1	inactive: -7.55%	
CCCCn1c(=O)n(CC2CCC(C(=O)NCCCOC)CC2)c(=O)c2sccc21 (configuration not stated)	inactive: -32.1%	
CCN1CCN(c2nc(N)c([N+](=O)[O-])c(Nc3ccc(C)cc3)n2)CC1		inconclusive [inhibitor, single point]
CN(NC(=O)c1ccc(Cl)cc1)c1ncc(C(F)(F)F)cc1Cl		inconclusive [inhibitor, single point]
CN(C(=O)c1ccc(NC(=O)C2CCCN(C(=O)OC(C)(C)C)C2)cc1)C1CCC1 (configuration not stated)		active: 16.4 µM
O=S(=O)(NCC(c1ccccc1)N1CCNCC1)c1ccc(Cl)cc1 (configuration not stated)		inconclusive [inhibitor, single point]
Cn1c(=O)c2c(nc(Oc3ccccc3Br)n2C)n(C)c1=O		inconclusive [inhibitor, single point]
CC1CCCC(C)N1C(=O)COC(=O)Cc1c[nH]c2ccccc12 (configuration not stated)	inactive: -1.88%	
